Assay results from US20100047166A1, “ANTIBODIES AND RELATED MOLECULES THAT BIND TO 58P1D12 PROTEINS” (priority 2008, published 2010).

Experiments:
[1] = test system: LAPC9-AD prostate cancer xenografts; assay: LAPC9-AD prostate cancer xenografts grown in mouse tibiae; conditions: day 32; 500 μg i.p. twice weekly, 10 doses; vs control antibody, p=0.0057
HUVEC = assay: 58P1D12 ECD-induced HUVEC tube formation; type: cell-based; conditions: MAb 30 μg/mL, recombinant 58P1D12 ECD 3 μg/mL, 16 hours
Description: FIG. 8. […] The cells were then plated on Matrigel® and allowed to form tubes for 16 hours. The number of tubes were counted.
FIG. 9. 58P1D12 MAbs: Comparison of in vitro HUVEC tube formation. […] The cells were then plated on Matrigel® and allowed to form tubes for 16 hours. The number of tubes were counted.
The cells were then plated on Matrigel® and allowed to form tubes for 16 hours.
The cells were then plated on Matrigel® and allowed to form tubes for 16 hours. The number of tubes were counted. […] (FIG. 9).

cell surface 58P1D12 = target: T1, cell surface 58P1D12 (Homo sapiens, UniProt Q9H9P2); assay: Binding to 58P1D12 by flow cytometry or ELISA; conditions: cell surface 58P1D12 by flow cytometry or immobilized 58P1D12 by ELISA
T1 construct: host or cells: 58P1D12-expressing cells, endogenous (cancer xenograft cells) or recombinant
T1 sequence (Q9H9P2 22-273): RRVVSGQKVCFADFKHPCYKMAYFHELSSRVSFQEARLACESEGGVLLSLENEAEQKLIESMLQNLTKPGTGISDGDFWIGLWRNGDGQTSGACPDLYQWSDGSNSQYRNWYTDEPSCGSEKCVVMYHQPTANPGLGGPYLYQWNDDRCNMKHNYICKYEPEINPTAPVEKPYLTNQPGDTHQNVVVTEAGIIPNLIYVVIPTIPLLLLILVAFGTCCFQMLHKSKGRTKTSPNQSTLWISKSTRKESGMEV
Description: Primary hybridoma screening for MAbs to 58P1D12 is performed by FACS analysis. The protocol is as follows: 50 μl/well of hybridoma supernatant (neat) or purified antibodies (in serial dilutions) are added to 96-well FACS plates and mixed with 58P1D12-expressing cells (endogenous or recombinant, 50,000 cells/well). The mixture is incubated at 4° C. for two hours. At the end of incubation, the cells are washed with FACS Buffer and incubated with 100 μl of detection antibody (anti-hIgG-PE) for 45 minutes at 4° C. At the end of incubation, the cells are washed with FACS Buffer, fixed with Formaldehyde and analyzed using FACScan. Data are analyzed using CellQuest Pro software.

Ovcar5-58P1D12 tumors = assay: Survival of mice bearing i.p. established Ovcar5-58P1D12 tumors; type: in vivo, SCID mice
Description: FIG. 15. […] Ovcar5-58P1D12 tumor cells (2.0×10^6 cells) were injected into the peritoneum of female SCID mice on Day 0. […] Animals were treated twice weekly with antibody for as long as they survived. The health and survival of the mice was monitored and recorded every few days.
Ovarian tumors often metastasize and grow within the peritoneal cavity. Accordingly, intraperitoneal growth of ovarian tumors in mice are performed by injection of 2 million cells directly into the peritoneum of female mice. Mice are monitored for general health, physical activity, and appearance until they become moribund. At the time of sacrifice, the peritoneal cavity can be examined to determine tumor burden and lungs harvested to evaluate metastasis to distant sites. Alternatively, death can be used as an endpoint. The mice are then segregated into groups for the appropriate treatments, with 58P1D12 or control MAbs being injected i.p.
In another experiment, Ovcar5-58P1D12 tumor cells (2.0×10^6 cells) were injected into the peritoneum of female SCID mice on Day 0. […] Animals were treated twice weekly with antibody for as long as they survived. The health and survival of the mice was monitored and recorded over several days during the study.

OVCAR-5/58P1D12 cells = assay: Boyden Transwell/Matrigel tumor cell invasion assay; type: cell-based, Human; conditions: 25 μg/mL MAb, Matrigel, 24 hours
Description: FIG. 6. […] Human ovarian cancer cell line OVCAR-5 was transduced with retroviruses (empty vector [Neo] or 58P1D12). Boyden Transwell chambers were coated with a layer of Matrigel® for the cells to invade. […] The cells were allowed to invade for 24 hours toward 10% FBS loaded into the lower chamber. Cells binding to the bottom filter were labeled with Calcein AM dye for 30 minutes and photographed.
Tumor cell invasion was evaluated using the Boyden Transwell chamber coated with a layer of Matrigel® for the cells to invade. Briefly, 58P1D12 MAb or isotype matched control MAb (25 μg/mL) were added to 4×10^4 OVCAR-5/58P1D12 cells in 0.1% FBS into the upper chamber of the apparatus coated with Matrigel®. The cells were allowed to invade for 24 hours toward 10% FBS loaded into the lower chamber. Cells binding to the bottom filter were labeled with Calcein AM dye for 30 minutes and photographed.
In this assay, the Boyden Transwell chamber is coated with a layer of Matrigel® for the cells to invade. […] The cells were allowed to invade for 24 hours toward 10% FBS loaded into the lower chamber. Cells binding to the bottom filter were labeled with Calcein AM dye for 30 minutes and photographed.

B1: Ha8-4c4.1: fully human γ1κ monoclonal antibody to 58P1D12 (Ha8-4c4.1 VH & Ha8-4c4.1 VL clone 1-B3); hybridoma ATCC PTA-9404 (antibody, V domains shown)
VH: QVQLQESGPGLVKPSETLSLTCTVSGGSVSSGGYYWSWIRQPPGKGLEWIGYIYYSGGTNYNPSLKSRVTISVDTSKNQFSLKLTSVTAADTAVYYCARESGYCTNVACFPDAFDIWGQGTMVTVSS
VL: DIVMTQSPDSLAVSLGERATINCKSSQGVLYSSNNKNYLAWYQQKPGQPPKLLIYWASTRESGVPDRFSGSGSGTDFTLTISSLQAEDVAVYFCQQYYVSPLTFGGGTKVEIKR
inhibition of tumor growth (tumor weight) [1]: 60%
HUVEC tube formation inhibition (comparison of 58P1D12 MAbs) (HUVEC): +
inhibition of tube formation (HUVEC; p=0.005): 50%
binding to 58P1D12 (cell surface 58P1D12): specifically bind to recombinant 58P1D12 expressing cells and endogenous cell surface 58P1D12 expressed in cancer xenograft cells
median survival (Ovcar5-58P1D12 tumors; 500 μg i.p. twice weekly from day 7, Control MAb median 37 days): 69 days
increase in median survival (Ovcar5-58P1D12 tumors; vs Control MAb, p=0.0066 Logrank test): 32 days
effect on tumor cell invasion (comparison of 58P1D12 MAbs) (OVCAR-5/58P1D12 cells): inhibited tumor cell invasion
inhibition of cell invasion (OVCAR-5/58P1D12 cells; vs isotype matched control MAb, p<0.0001): 75%
